This is one part of the list. The data describe in vitro nicking of single-stranded DNA by Rep domains (1 h at 37 °C, 3 µM enzyme); the outer parts of the 90-letter strands are left off. A value is the log2 ratio of uncut reads to the pool without enzyme; uncut sequences lie near 0, cut ones below; no hit call is given. The scaling is to total reads; where an enzyme cuts many sequences, the uncut ones exceed 0.
Assays:
Assay in all cases: uncleaved DNA left, log2 of reads against the no-enzyme library (log2 ratio); higher = less cleavage (more negative = more Rep cleavage of the k-mer); sequences stand for … in CTCGTCCG…ACCGGAGA
[1] = test system: T1, Rep nickase domain of Muscovy duck circovirus
T1 sequence (residues 1-111, tag not shown): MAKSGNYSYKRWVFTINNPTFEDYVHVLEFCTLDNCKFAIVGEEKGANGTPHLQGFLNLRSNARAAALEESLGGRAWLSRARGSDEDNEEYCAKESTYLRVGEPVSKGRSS
Method: (§1)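 A pool of 90-nt single-stranded DNAs with seven random bases just before the constant AC of the nick site (name = the seven bases) was cut by 3 µM recombinant His6-SUMO-tagged Rep nickase domain (300 nM DNA, 50 mM HEPES pH 8.0, 50 mM NaCl, 1 mM MnCl2, 1 h, 37 °C, three replicates). Uncut DNA was amplified and sequenced.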

[2] = test system: T2, Rep nickase domain of banana bunchy top virus
T2 sequence (residues 1-94, tag not shown): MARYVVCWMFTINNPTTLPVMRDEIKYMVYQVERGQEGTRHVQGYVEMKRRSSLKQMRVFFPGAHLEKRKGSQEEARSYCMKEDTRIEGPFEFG
Method: as §1

[3] = test system: T3, Rep nickase domain of cabbage leaf curl virus
T3 sequence (residues 1-116, tag not shown): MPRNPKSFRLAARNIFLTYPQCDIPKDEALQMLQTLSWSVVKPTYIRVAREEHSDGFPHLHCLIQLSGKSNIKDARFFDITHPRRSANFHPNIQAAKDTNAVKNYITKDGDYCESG
Method: as §1

[4] = test system: T4, Rep nickase domain of chickpea chlorotic dwarf virus
T4 sequence (residues 1-124, tag not shown): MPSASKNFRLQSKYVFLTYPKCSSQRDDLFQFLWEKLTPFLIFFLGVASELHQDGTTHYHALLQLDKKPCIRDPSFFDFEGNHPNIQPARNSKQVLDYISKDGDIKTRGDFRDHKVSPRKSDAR
Method: as §1

[5] = test system: T5, Rep nickase domain of faba bean necrotic yellows virus
T5 sequence (residues 1-98, tag not shown): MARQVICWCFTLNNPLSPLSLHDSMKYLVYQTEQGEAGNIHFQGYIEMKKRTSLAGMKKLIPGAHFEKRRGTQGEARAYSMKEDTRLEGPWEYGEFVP
Method: as §1

[6] = test system: T6, Rep nickase domain of maize striate mosaic virus
T6 sequence (residues 1-117, tag not shown): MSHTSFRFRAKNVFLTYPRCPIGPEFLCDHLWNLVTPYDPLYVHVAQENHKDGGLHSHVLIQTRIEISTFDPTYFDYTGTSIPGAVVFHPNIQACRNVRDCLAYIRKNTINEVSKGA
Method: as §1

[7] = test system: T7, Rep nickase domain of porcine circovirus 2
T7 sequence (residues 2-116, tag not shown): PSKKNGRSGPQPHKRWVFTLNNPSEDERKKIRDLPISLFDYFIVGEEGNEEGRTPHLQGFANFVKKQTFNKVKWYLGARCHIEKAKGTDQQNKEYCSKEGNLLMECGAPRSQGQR
Method: as §1

[8] = test system: T8, Rep nickase domain of tomato golden mosaic virus
T8 sequence (residues 1-124, tag not shown): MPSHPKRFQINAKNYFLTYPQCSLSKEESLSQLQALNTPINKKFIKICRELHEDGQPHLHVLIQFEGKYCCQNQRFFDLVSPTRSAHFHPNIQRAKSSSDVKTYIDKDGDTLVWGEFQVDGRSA
Method: as §1

[9] = test system: T9, Rep nickase domain of tomato yellow leaf curl virus
T9 sequence (residues 1-136, tag not shown): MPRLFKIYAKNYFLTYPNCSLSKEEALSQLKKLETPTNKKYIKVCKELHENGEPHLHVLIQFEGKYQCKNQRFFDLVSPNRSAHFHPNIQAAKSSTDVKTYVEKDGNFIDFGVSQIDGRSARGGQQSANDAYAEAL
Method: as §1

[10] = test system: T10, Rep nickase domain of wheat dwarf virus
T10 sequence (residues 1-137, tag not shown): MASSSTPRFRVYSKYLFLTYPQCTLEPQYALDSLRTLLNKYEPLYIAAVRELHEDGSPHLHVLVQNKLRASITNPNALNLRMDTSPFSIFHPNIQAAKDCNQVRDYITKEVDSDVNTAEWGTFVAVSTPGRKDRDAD
Method: as §1

Sequence	uncleaved DNA left (log2) [1]	uncleaved DNA left (log2) [2]	uncleaved DNA left (log2) [3]	uncleaved DNA left (log2) [4]	uncleaved DNA left (log2) [5]	uncleaved DNA left (log2) [6]	uncleaved DNA left (log2) [7]	uncleaved DNA left (log2) [8]	uncleaved DNA left (log2) [9]	uncleaved DNA left (log2) [10]
GGGAAGC	0.0462	0.17	0.858	2.05	-0.0702	2.2	0.193	0.118	0.102	0.259
GCTTAGC	0.0384	0.0829	-0.155	-0.00332	-0.0764	-0.87	0.161	-0.0738	0.0326	0.0296
CTCTCTC	-0.118	-0.0633	-0.0184	-0.242	0.0215	-0.432	-0.07	-0.106	-0.0848	-0.0105
CGATGCA	0.0532	0.152	0.00025	0.381	0.153	0.439	-0.0185	-0.00348	0.159	0.112
AGTGGGT	0.178	0.0467	0.159	1.35	-0.0126	1.73	-0.159	0.133	-0.129	0.0862
CCTGCCT	0.089	0.1	-0.0324	-1.32	0.123	-0.209	-0.0671	0.0678	0.1	0.177
GTCGAGA	0.0343	0.115	0.807	1.55	0.0811	2.07	0.203	0.0735	0.212	0.229
CTGCGAC	-0.107	-0.101	-0.578	-0.261	-0.0564	-0.975	0.00862	-0.147	-0.105	-0.107
CGGAAGT	0.0565	-0.0104	0.134	0.29	0.0303	-0.0819	0.0109	-0.0783	0.0119	0.101
CTCATGA	-0.0768	-0.0272	-0.157	-0.0669	-0.0982	-1.06	-0.0419	-0.192	-0.038	-0.114
AACTTAC	-0.0469	0.0191	-0.386	-2.28	-0.0149	-0.877	-0.314	-0.0529	-0.00864	-0.0655
CAGCAAC	0.0571	-0.058	-0.11	-1.43	0.0522	-0.684	-0.156	0.0283	-0.0814	0.0515
CATTTTG	0.024	-0.0213	-0.683	-0.553	0.234	-1.23	0.122	-0.0282	0.0461	-0.00593
GCTGGGT	0.095	-0.0333	0.182	0.549	-0.0835	0.798	0.0374	0.167	0.0479	-0.0418
ATTCGAT	0.101	0.0639	0.177	0.677	0.0927	0.665	-0.064	0.121	-0.00276	0.0712
TTGAAAT	0.184	0.122	0.111	0.0536	0.0391	-0.148	-0.568	-0.0417	0.203	0.254
GAGGGTT	0.06	-0.0604	0.262	0.476	-0.0131	1.7	-0.67	-0.00887	-0.0117	-0.0294
ACCGTAT	-0.0195	-0.122	-0.134	-0.37	-0.0642	-0.476	-0.000429	0.0589	-0.165	-0.151
GACAACG	-0.0228	-0.0769	-0.787	-0.786	-0.0509	-1.21	0.0616	-0.08	-0.0384	-0.0577
TGGTTGA	0.195	-0.0193	0.277	0.34	0.133	-0.0687	0.00985	0.023	0.05	0.0819

Sequence	uncleaved DNA left (log2) [1]	uncleaved DNA left (log2) [2]	uncleaved DNA left (log2) [3]	uncleaved DNA left (log2) [4]	uncleaved DNA left (log2) [5]	uncleaved DNA left (log2) [6]	uncleaved DNA left (log2) [7]	uncleaved DNA left (log2) [8]	uncleaved DNA left (log2) [9]	uncleaved DNA left (log2) [10]
TGCCATC	0.0381	0.0642	0.103	0.49	0.0213	0.126	-0.00506	-0.0973	0.0755	0.128
TAATTCA	-1.67	0.139	-3.14	-3	0.0441	-2.78	-2.12	-3.36	-0.00657	-3.31
TAGCGCC	0.00556	-0.12	-0.13	-0.394	-0.0907	-0.551	-0.0133	-0.0611	-0.0953	-0.16
TTTTTTT	-2.68	-0.623	0.0608	-2	-0.03	-0.381	-3.02	-0.0815	0.0791	-0.373
TATTCCG	-0.134	-0.0285	-0.863	-0.0743	0.0596	-0.972	0.0633	-0.112	-0.0947	-0.0574
ACAGCAC	-0.0262	-0.12	-0.602	-0.805	-0.0654	-0.937	0.078	-0.0405	-0.139	-0.165
TCGGTTG	0.0311	-0.117	0.00162	0.355	-0.0149	0.721	0.00818	-0.0993	-0.129	-0.0651
AAAATAG	0.0777	-0.059	-0.712	-0.427	0.135	-1.23	0.185	0.0652	0.11	-0.0231
ATCGAAG	0.0347	0.073	-0.614	-0.593	-0.0665	-0.978	0.199	0.0455	0.00459	-0.00187
GGCCACC	-0.000189	0.0816	0.467	1.13	0.0158	1.66	-0.00228	0.0258	0.0494	0.176
GAGCCAA	0.0704	0.0877	0.307	0.788	-0.0881	0.823	-0.161	-0.00741	0.116	0.188
GTGACCG	-0.00156	0.00559	0.00769	0.576	-0.0302	0.174	0.0141	-0.000471	-0.091	-0.034
ATGTGAA	0.0726	-0.00972	0.0983	0.0829	0.0797	-0.074	-0.0893	0.0318	-0.035	0.0698
TGGCCTG	-0.0727	-0.0232	0.108	0.603	-0.103	1.23	-0.0165	-0.00765	-0.105	-0.036
CAGTAAC	0.067	0.0364	-0.265	-1.61	-0.166	-0.733	-2.07	0.0906	-0.00047	-0.0674
CGGCGTA	0.00982	0.0309	-0.28	-0.321	-0.149	-0.26	0.0318	0.0138	0.089	-0.0394
TCTAATG	-0.0444	-0.0398	-0.326	-0.489	0.091	-0.89	-0.0416	0.0552	-0.0331	0.000115
GCGTTTG	-0.0958	-0.0173	-0.132	0.14	-0.0645	0.431	-0.0294	-0.103	-0.0462	-0.138
AGGATCT	0.106	0.0402	0.265	0.0758	-0.00883	1.1	-0.0299	0.00768	0.0427	0.00842
GCTCGTG	-0.0466	-0.118	-0.63	-0.424	-0.111	-0.868	0.0502	-0.0155	-0.063	-0.0826

Sequence	uncleaved DNA left (log2) [1]	uncleaved DNA left (log2) [2]	uncleaved DNA left (log2) [3]	uncleaved DNA left (log2) [4]	uncleaved DNA left (log2) [5]	uncleaved DNA left (log2) [6]	uncleaved DNA left (log2) [7]	uncleaved DNA left (log2) [8]	uncleaved DNA left (log2) [9]	uncleaved DNA left (log2) [10]
AGGTTAG	0.0401	0.0828	-0.576	-0.322	0.181	-1.06	0.217	0.0979	0.0837	0.0887
TCGCCTA	0.0379	0.0751	0.0224	-0.503	-0.0539	-0.488	-0.22	0.00916	0.0628	-0.12
ACTGGCC	0.00541	-0.0289	-0.099	0.551	-0.00781	1	0.162	0.0314	-0.0669	0.0166
CGAAGGT	0.0982	-0.0107	0.185	0.941	-0.0875	1.58	0.125	-0.0618	-0.0463	0.0587
TCAGCCC	-0.0246	-0.0673	0.037	-0.347	-0.0471	-0.393	-0.0945	-0.042	0.0687	-0.206
AGGATAA	0.153	0.137	0.284	0.931	0.0899	1.07	0.198	0.143	0.159	0.125
TCGCCTG	-0.106	-0.0513	-0.0419	0.423	-0.0483	1.14	0.0393	-0.00233	0.0228	0.0178
ACGACTG	0.0844	0.0622	0.024	0.663	-0.000432	1.77	0.187	0.0469	-0.0332	0.136
CATTAGT	-3.61	-3.83	-0.968	-1.75	-0.267	-1.28	-3.61	-0.259	-0.0818	-0.218
CTTGCTA	-0.176	-0.142	-0.662	-1.26	-0.162	-1.35	-0.112	-0.232	-0.146	-0.328
CAGGGGC	-0.0406	0.0415	0.495	1.06	0.0243	1.15	0.216	0.119	0.0478	0.11
GTCTCTG	-0.0124	0.0564	0.301	0.729	0.0177	1.73	0.126	0.149	-0.0116	0.0391
AGTACTG	0.0164	0.00488	0.0228	0.708	-0.0131	1.7	0.0797	-0.0355	-0.0418	0.0694
GCATGCG	-0.00544	-0.119	0.229	1.45	0.0397	1.57	0.127	-0.196	0.00416	-0.0473
TGGGTGG	0.12	-0.192	0.168	0.468	-0.0512	0.37	0.0255	0.0112	-0.111	-0.0718
TACTTCA	-1.61	-0.331	-0.348	-2.47	-0.0557	-0.664	-3.15	-0.0992	0.0986	0.0442
GTCTTAT	0.0553	0.00467	0.385	0.776	-0.0647	1.79	-0.0189	0.109	-0.0614	0.075
CGCATAT	0.0489	-0.0571	0.018	-0.412	-0.00607	-0.389	-0.0903	-0.152	0.0228	0.0205
GTGAGCC	-0.0648	0.0756	0.133	0.856	-0.00998	1.63	0.0178	0.0451	0.0453	0.0787
ATGGCTT	0.08	0.0973	0.144	-0.085	-0.0106	0.828	-0.0443	0.124	0.0721	0.0289
